# Measurements taken from ChEMBL document CHEMBL4888484, “Replenishing the malaria drug discovery pipeline: Screening and hit evaluation of the MMV Hit Generation Library 1 (HGL1) against asexual blood stage Plasmodium falciparum ,using a nano luciferase reporter read-out” (2022).
# Out of some 150,000 compounds screened, about 540 (0.36%) showed an effect of 50% or more. The list shows a part of the results.
# System: Plasmodium falciparum
# Assay: Primary screen in NF54 nanoGlo assay, in single point, at 2uM, 72h; a lower Z score goes with more inhibition
# Format: functional, Erythrocyte
# Details: timepoint 72 hour
Structure (SMILES),% Inhibition [%],Z score
O=C(c1ccccn1)N1C[C@@H]2OCC(=O)N(CC3CC3)[C@@H]2C1,5,-0.7
Cc1noc(C)c1C(=O)NC[C@H](OCCO)c1cccs1,0,-0.03
CC(=O)N1CCc2cc(N[C@@H](C)C(=O)Nc3ccc(N(C)C)cc3)ccc21,1,-0.19
COc1ccc([C@H]2CC(=O)N(Cc3cccc(C)c3)c3c2c(C)nn3-c2nc(C)cc(C)n2)c(OC)c1,-19,2.72
CCOC(=O)Nc1ccc2c(c1)N(C(=O)CCN(CC)CC)c1ccccc1[S@@+]2[O-],-6,1.1
O=C(CC(=O)NCc1ccco1)NCc1ccco1,3,-0.57
CCc1noc2nc(CCC(=O)NCc3cccc(Cl)c3)nc(N3CCCCC3)c12,0,0.02
Cc1ccn2cnc(C(=O)N(C)Cc3csc(C(C)(C)O)n3)c2c1,4,-0.6
CC(C)NC(=O)c1csc(COc2ccc3c(c2)[C@H](c2cccc(F)c2)N(C(=O)C(C)C)CC3)n1,-2,0.27
CCn1nnc(NCc2ccc(CC(C)C)s2)n1,4,-0.67
O=C(NC1CCN(c2cnccn2)CC1)c1cc(-c2ccccc2)on1,-8,1.09
Cc1csc(C(=O)NCC[C@H](O)c2cccc(Cl)c2)c1,-22,2.76
Cc1cccc(NC(=O)C(=O)N2CCCCCCC2)n1,-2,0.18
Cc1noc(C2CC2)c1N[C@@H](C)CC1CCCC1,-19,2.91
Cc1ccc(CNS(=O)(=O)c2cc(-c3nc(C(C)C)cs3)sc2C)cc1,-4,0.49
Cc1cccc2c(C(=O)N[C@H]3CCOC3(C)C)coc12,-11,1.17
O=c1c2ccccc2nc(Cc2ccccc2)n1Nc1ccccc1,-13,1.76
Cc1cccn2cc(Cn3cc(CN4C[C@@H](C)O[C@@H](C)C4)nn3)nc12,-3,0.46
COc1cc(N(C)CC2(CO)CCCC2)nc(N)n1,-9,1.21
Cc1ccccc1-n1c(=O)c2sccc2n(CC(=O)Nc2ccc(N(C)C)cc2)c1=O,2,-0.2
Cc1nc(CN2C(=O)N(CC(N)=O)C(C)(C)C2=O)sc1C,-44,5.18
O=C(Cn1nnc2ccccc21)Nc1ccn(Cc2ccc(F)cc2Cl)n1,7,-0.82
O=C(NCc1ccccn1)c1ccc(Cn2c(=O)[nH]c3ccsc3c2=O)cc1,10,-1.61
CC[C@@H](c1ccccn1)N(C)C(=O)c1ccc(-c2sc(C)nc2C)cc1,9,-1.25
Cc1ccc(CN2CCN(CC3CCCCC3)[C@@H](CCO)C2)s1,-18,1.62
CCN1CCC[C@@H]1CN(C)Cc1ccoc1,-22,2.7
CCCN1CCCC[C@H]1C(=O)NCCCn1ccnc1,-6,1.01

Structure (SMILES),% Inhibition [%],Z score
CCOCCN1C(=O)NC2c3ccccc3OC13CCCCC23 (stereo unspecified),1,-0.12
NC(=O)c1ccc(NC(=O)N2CC[C@H](n3cccn3)C2)cn1,0,-0.05
O=C(COc1ccc(Cl)cc1)N1CCO[C@@H](CN2CCN(c3ccc(F)cc3)CC2)C1,-6,0.77
CCc1ccc(C(=O)N(C)Cc2cc(C)on2)s1,-8,1.25
COc1ncc(-c2c(-c3ccccc3)ncn2[C@H]2COC[C@@H]2OC)cn1,5,-0.59
Cc1csc(CN2CCOC[C@H]2c2noc(-c3cnn(C)c3)n2)n1,-18,2.56
CCc1nc(C)c(NC(=O)N[C@@H](C)c2cccc(O)c2)s1,-9,1.07
Cc1cc(C(=O)N2CC(c3nc(-c4ccco4)no3)C2)no1,-20,2.31
Cc1nnc2ccc(N3CC(Cn4nc5c(cc4=O)CCC5)C3)nn12,-8,1.14
CCCn1c(C)nnc1CN[C@H](C)c1ccc(Cl)cc1Cl,-4,0.58
COc1ncc(CN2CCOC[C@H]2c2ccc(F)cc2)c(C)n1,-14,1.84
CN(Cc1cc(=O)n2ncnc2[nH]1)CC1(N2CCOCC2)CCCCC1,13,-1.75
Cc1ccc(-c2onc(C)c2C(=O)Nc2ccc3ccccc3c2)cc1,-6,0.73
O=C1C2Cc3c([nH]c4ccccc34)C(CCc3ccccc3)N2C(=O)CN1Cc1ccc(Cl)cc1 (stereo unspecified),-12,1.04
CCC[C@H](C)NC(=O)c1c(CC)noc1C,-9,0.82
C[C@@H](CNC(=O)N1CCN(S(=O)(=O)c2ccccc2)CC1)c1nc2ccccc2n1C(F)F,3,-0.35
C[C@H](NC(=O)c1coc(CN(CCN2CCOCC2)Cc2cccc(Cl)c2)n1)c1ccccc1,2,-0.31
O=C(Nc1ccccc1C(F)(F)F)[C@@H]1COCC(=O)N1Cc1ccccc1,-8,1.12
COC(=O)CN1CCN(Cc2c[nH]nc2-c2ccc(F)cc2)[C@@H](C)C1=O,0,0.02
CCN(CC)C(=O)c1cnc2snc(C)c2c1N1CCC(C(=O)Nc2ccc(C(C)C)cc2)CC1,-7,1.06
COC1(C(=O)N[C@H](C)c2ccc(F)cc2Cl)CCC1,9,-1.61
O=C1COC(=O)N1C1CN(C(=O)C2(c3ccccc3)CCOCC2)C1,-3,0.57
Cc1csc([C@@H](C)CNc2nc(C)cnc2C)n1,-3,0.57
c1[nH]nc2c1CCC[C@@H]2OCCC1OCCO1,-3,0.45
Cc1cccc2c1CC(C(=O)N[C@H]1[C@@H]3CN(C(=O)CCn4cccn4)C[C@@H]31)O2 (stereo partly specified),-5,0.81
NC(=O)c1cc(N2CCC[C@H](F)C2)ccn1,-2,0.4
